Measurements from the supplement of paper PMC10681739.
± gives the standard deviation of the averaged measurements. Whole data set: some 4,000 sequences, median “arbitrary fluorescence units” near 830, cut for the highest 2% near 6,500. The list lacks most of the strong results.
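Note: Full-length recombinant human RUNX1 bound to double-stranded DNA microarray spots, detected with an Alexa488-labelled secondary antibody after the anti-RUNX1 primary, read as scanned spot fluorescence.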

These sequences were tested against RUNX1 (UniProt Q01196) (assay: RUNX1 binding intensity (PBM fluorescence), RUNX1 alone (arbitrary fluorescence units); higher = stronger binding). Conditions: RUNX1 concentration 2 nM; ETS1 concentration 0 nM.
Chain of UniProt Q01196 (Q01196 whole entry): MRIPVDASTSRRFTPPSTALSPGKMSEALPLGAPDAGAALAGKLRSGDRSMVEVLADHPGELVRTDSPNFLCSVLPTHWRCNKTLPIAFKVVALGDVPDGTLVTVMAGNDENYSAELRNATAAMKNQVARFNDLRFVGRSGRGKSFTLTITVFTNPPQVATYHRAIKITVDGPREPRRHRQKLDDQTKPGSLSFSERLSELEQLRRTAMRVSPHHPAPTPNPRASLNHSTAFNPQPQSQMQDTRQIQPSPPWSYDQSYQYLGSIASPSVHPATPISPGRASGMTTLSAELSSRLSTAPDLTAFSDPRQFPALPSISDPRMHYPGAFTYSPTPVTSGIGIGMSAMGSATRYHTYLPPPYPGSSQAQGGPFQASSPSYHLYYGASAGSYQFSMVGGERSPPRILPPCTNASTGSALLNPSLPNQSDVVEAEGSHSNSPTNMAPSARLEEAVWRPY
Experimental: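 gcPBM on 36-bp genomic-derived probes (partner site mutated) containing one RUNX1 site and no ETS1 site. Recombinant human RUNX1 (2 nM) was incubated alone or with ETS1 (25 nM) and detected by anti-RUNX1 antibody fluorescence. Values are medians over 4 replicate spots (not normalised). The probes sit in constant array flanks that are not printed.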
AACCCAGGCTCCCTGACTCGCGGTCTTGTTATCAGT was tested, and the RUNX1 binding intensity was 778. TGGAACCGCTGCGTTAACCCAGCCCCGTAAATAACG gave an RUNX1 binding intensity of 827. For CCGTGTGCTGTGGGTTTTGGGGACAGAAAGCAAGCT, the RUNX1 binding intensity was 912. For TTGCTTTTTGAGGTTTGTATTTACTGTGTGAGCTGT, the RUNX1 binding intensity was 1320. In the case of CGTTACCACCCTCTTAAAGGAGCCCATGAAGGAGGC, the RUNX1 binding intensity is reported as 988. Sequence CCCTCTGAGACACGATTTGCTTCCCACACAAGGCTA has an RUNX1 binding intensity of 1270 ± 100. CCAGTGCAGAAACGTCCCTCCTGCCGCAGCTTTGTC gave an RUNX1 binding intensity of 913. TGGGGGCCGAAGCCTAAACCCCTCCCGCAGCCAGTC was tested, and the RUNX1 binding intensity was 752. CTTGCGGCCTCGCGCCATGGGCAGTCTCCGCCGCCA gave an RUNX1 binding intensity of 774. ACTCCCCGTGGTAACCTTGTTCATTCGCTGAAGCCC gave an RUNX1 binding intensity of 1190. With GGCTCGGCAAACAGCCGGCTCCGCGGTGGAACGGGA the RUNX1 binding intensity was 705. For GCGTTCGGCTGGTCGTGGGCTTTCTGCGGCCGCTGA, the RUNX1 binding intensity was 835. Sequence GCTCTTCACTGCCTGTGGCTCCCGCAGCGGCCGCCG has an RUNX1 binding intensity of 1030. With AGCTGGCTGTGGTCAGGGTGGAATCAGAAAGAGAAA the RUNX1 binding intensity was 1100. With TGGGAGACCACAAAGCCCAAGGCCGAAGCCATGTCA the RUNX1 binding intensity was 899. GCTCAGGCTGCTGTCTGTGCACTGTTAGGTGGTTTG gave an RUNX1 binding intensity of 708. CCGCTCCCGGGACGCGAATCGCTCTGCGGCTGCGTC was tested, and the RUNX1 binding intensity was 768. CCTCCTTCGGCCACAACACGATCACTTTCGGTTGGT gave an RUNX1 binding intensity of 980. With AGCGCAGCCGCAGACTCCGCTCAGATCCCCGGGTCG the RUNX1 binding intensity was 758. With TACAGTTCCACTTGCTGTGATTTCAGTTACCCACAG the RUNX1 binding intensity was 825. Work on AGGCAAAAGCCACAGCCACACACGATGGGGCCTCCC yielded an RUNX1 binding intensity of 785. With GTTGAGGTGTCCCACAAACCAAACAGGGTGTGGGGG the RUNX1 binding intensity was 964. CCGACCCCAGCTTGCCGGGGTTGCGGCCCTGCCTCC showed an RUNX1 binding intensity of 696. GCGCGGCCCGCAGCGCCACACAGATTCCCGGGCGCC showed an RUNX1 binding intensity of 757. With TTCAAATACCACAGCCCAATATTGGTATTGCCGAGC the RUNX1 binding intensity was 1170. CATTTCTTCGTTCCTTGGCCCCCGCAGTGCGCCCGC was tested, and the RUNX1 binding intensity was 1650. For ACGTTCGGCCCCGCACACTCAGCATTTACGGCCTCC, the RUNX1 binding intensity was 945. Work on CCTGCGGATCACGCAAGTGGCTGCGGTCGGCGCCAT yielded an RUNX1 binding intensity of 992. AACAACTGACTGGACAGAACACAGCCACAAAACACG gave an RUNX1 binding intensity of 1040 ± 11. Work on CTTAGGAATTCCCGTAGATGGTGGTCTGTGCTAAGG yielded an RUNX1 binding intensity of 743. CTCCTTTGCCCGCAGCGGCTGGTCCAGTTTACATCA was tested, and the RUNX1 binding intensity was 1100. In the case of TCTGCGGCCCTACCTCAGCCAAGGACCTCCTCAGAA, the RUNX1 binding intensity is reported as 893. ACCTCTGCGGCGTCACTGGGAGCCCGACGAAAAACT gave an RUNX1 binding intensity of 808. GTGGATTTCACATGCTGTCCTAGCGGTATGTTTGTC showed an RUNX1 binding intensity of 733. Sequence CTCTGGCAGGGAGCTCTGAGGGCTAAACCACAAAAA has an RUNX1 binding intensity of 1560. In the case of GCCTGAGCGCAAACCCGGCGCCACCACAAGATGGCA, the RUNX1 binding intensity is reported as 943. Work on CCTCAATTGCCTGGCCAGAGAAACCACTGCCTCTCA yielded an RUNX1 binding intensity of 1080. Work on GCCGCCGTTGCCTGATTGGTTGTGGGTGGCTACCTC yielded an RUNX1 binding intensity of 764. With CTGTCATCTTTCTGACAGCACGCCCACAAAGGACCA the RUNX1 binding intensity was 804. In the case of CTTTTTGATCTCCTCAAGCATCCCACAAATACACAG, the RUNX1 binding intensity is reported as 1180. Work on TCTCCTGTGGCCACGGCTGAAAACCTACATTCCGTC yielded an RUNX1 binding intensity of 960. GAGAAACCTCAGGCATGGCCGGGCCACCAGCAAAAC was tested, and the RUNX1 binding intensity was 769. Sequence GGTTTGGTGGTTTGGTGGCAGCATGAAGGTAAGGGA has an RUNX1 binding intensity of 1740. TGGCAGCAAACCACGGAGGCTTCTCGGAGGTGCAGA was tested, and the RUNX1 binding intensity was 720. GGCGCCTCTTTGCGCCCCCGCCCACAATCGAGCGCA gave an RUNX1 binding intensity of 826. For GAGGCGTTGCCGCCTCCTTTTCGCGGTTGCCTTCTC, the RUNX1 binding intensity was 988. For TGTGTCAATTCCCTATCTGTTGCGGTTGTTCACTCC, the RUNX1 binding intensity was 1150. In the case of ACAACCCGAAAGTTGGCGCAGCGCGGTTGCCAATGG, the RUNX1 binding intensity is reported as 741. With CACTGCCTGTCAAAGCCAGTTCCTTAACCGCTTAGG the RUNX1 binding intensity was 854. With GGATGGCCGAAGAGGCGGCTGAGGCCGCAGGACGTG the RUNX1 binding intensity was 811. ACCATTCTGTGGCTTTCTGGTTTCCATCCTTTTTGG was tested, and the RUNX1 binding intensity was 1680. TTGCGGGTCCACCTCTGCGCTTCTCCTGCCTGATCA showed an RUNX1 binding intensity of 724. With CTCCCACTGTGGTTGCCCCCTTGCTCTCAGTGGCAC the RUNX1 binding intensity was 902. TATATGCACAGGCAGTCCCTTACAACCCACTCTGTT gave an RUNX1 binding intensity of 894. CCGGCAAACACGGGAGAGCGACCGAAACCGCAATCA was tested, and the RUNX1 binding intensity was 5260. In the case of GCAGAAGAGGAACTGGTTTGCCTGTGCGGTGGGGGA, the RUNX1 binding intensity is reported as 782. With GGCCTTGCGGCGTCTCTGCTGCTTGCGCCTTCCCGG the RUNX1 binding intensity was 763. GGGCAATGTGGTCGCCAGACCATGCTGTCACTTAGG showed an RUNX1 binding intensity of 813. With TGGGCTGCCTCTCCATTATCCTAATTAGGTGGTTTG the RUNX1 binding intensity was 698. For GACAAAGAGGCAGTCCCCAAAAACCACAATAACAGT, the RUNX1 binding intensity was 1610. In the case of GAACGGTGTGGCCACGAGAGTCTAGAGGAGACCAAC, the RUNX1 binding intensity is reported as 821. In the case of AATTGAGACAGGCAATGTTGGTTTGTGGTCAGGCAC, the RUNX1 binding intensity is reported as 1080. Work on CCGCGTCCTCAGCGGTCCGGCCGGGAGTCACCTGAA yielded an RUNX1 binding intensity of 813 ± 28. In the case of ACTCTGCGGTGTGGCCCTGAGCAAGTTCCTTCATGT, the RUNX1 binding intensity is reported as 2750. In the case of CCAGTTCCCCCATCACTTTGAATTGTGGTTCTTCTC, the RUNX1 binding intensity is reported as 1130. In the case of AGTCTGTGGTAATTTGTTATGTAGCGATAGGAGGTG, the RUNX1 binding intensity is reported as 1250. Work on AGTGCGGTAATGAGTCATTGTTTATAGGCAGCACCC yielded an RUNX1 binding intensity of 846. Work on ACTTAGTGAAGTCTCCTTCACTTGGTTTTGCTCTTC yielded an RUNX1 binding intensity of 822. CAGTTTACCGCACGGTGGGGCCTGTCTCCAGAATCG showed an RUNX1 binding intensity of 1090. With GCTCTGCGGCCTCGCGCCATCGTTTTCGGTGGGCAG the RUNX1 binding intensity was 788. GTGACGGCTATCCACCGGGCCCTGTGGTTTCCAACA showed an RUNX1 binding intensity of 896. With ATAGACTCAGCAAGTGATTGTGGTAAGATTCTATAT the RUNX1 binding intensity was 851. In the case of TCGCTGGGACCGCGGCTGGGCGCCCGGGGGCGGGGC, the RUNX1 binding intensity is reported as 725. Sequence CGTTCAGGGTTGCGCCTGAGCCCGCAGCACAGGACG has an RUNX1 binding intensity of 789. In the case of ACCGTGCGGTCTGCAAGCAACCCTTGCGCTCCTTCA, the RUNX1 binding intensity is reported as 1090. ATGGATATAAACCTCAAACAGGAGGTGATAAAGCAA showed an RUNX1 binding intensity of 772. With AGCAACATGAAAGAACAGCCTGACCACAGCAGCCAC the RUNX1 binding intensity was 905. Work on CCGCTGTGGGAACTGGAACCTCCCTCACAGAAAGGG yielded an RUNX1 binding intensity of 802. Sequence TCGCCTGCGGCAAACAGGCCAGATCCCCAGCCCATC has an RUNX1 binding intensity of 764. For AATGCTGAGAACCACAGGCTCACAGCATGCCCATCT, the RUNX1 binding intensity was 718.
